About 21,000 targets were measured; listed, in parts, are those with the largest changes and a random draw of the rest.
Compound: Cc1cc(ccc1-c1ccccc1)C(=O)N1CCCN(CC1)C(=O)CCl [compound 10]
Assay: probe-labelled cysteine peptide fold change vs DMSO (competition) (log2 fold change); higher = less target engagement (more negative = stronger competition)
Conditions: THP-1, incubation time: 4 h
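Note: competitive profiling in live THP-1 cells: cysteine peptides tagged with an iodoacetamide desthiobiotin (IA-DTB) probe, intensity after compound treatment relative to DMSO-treated cells.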

Sequence of UniProt O95466 (O95466 whole entry): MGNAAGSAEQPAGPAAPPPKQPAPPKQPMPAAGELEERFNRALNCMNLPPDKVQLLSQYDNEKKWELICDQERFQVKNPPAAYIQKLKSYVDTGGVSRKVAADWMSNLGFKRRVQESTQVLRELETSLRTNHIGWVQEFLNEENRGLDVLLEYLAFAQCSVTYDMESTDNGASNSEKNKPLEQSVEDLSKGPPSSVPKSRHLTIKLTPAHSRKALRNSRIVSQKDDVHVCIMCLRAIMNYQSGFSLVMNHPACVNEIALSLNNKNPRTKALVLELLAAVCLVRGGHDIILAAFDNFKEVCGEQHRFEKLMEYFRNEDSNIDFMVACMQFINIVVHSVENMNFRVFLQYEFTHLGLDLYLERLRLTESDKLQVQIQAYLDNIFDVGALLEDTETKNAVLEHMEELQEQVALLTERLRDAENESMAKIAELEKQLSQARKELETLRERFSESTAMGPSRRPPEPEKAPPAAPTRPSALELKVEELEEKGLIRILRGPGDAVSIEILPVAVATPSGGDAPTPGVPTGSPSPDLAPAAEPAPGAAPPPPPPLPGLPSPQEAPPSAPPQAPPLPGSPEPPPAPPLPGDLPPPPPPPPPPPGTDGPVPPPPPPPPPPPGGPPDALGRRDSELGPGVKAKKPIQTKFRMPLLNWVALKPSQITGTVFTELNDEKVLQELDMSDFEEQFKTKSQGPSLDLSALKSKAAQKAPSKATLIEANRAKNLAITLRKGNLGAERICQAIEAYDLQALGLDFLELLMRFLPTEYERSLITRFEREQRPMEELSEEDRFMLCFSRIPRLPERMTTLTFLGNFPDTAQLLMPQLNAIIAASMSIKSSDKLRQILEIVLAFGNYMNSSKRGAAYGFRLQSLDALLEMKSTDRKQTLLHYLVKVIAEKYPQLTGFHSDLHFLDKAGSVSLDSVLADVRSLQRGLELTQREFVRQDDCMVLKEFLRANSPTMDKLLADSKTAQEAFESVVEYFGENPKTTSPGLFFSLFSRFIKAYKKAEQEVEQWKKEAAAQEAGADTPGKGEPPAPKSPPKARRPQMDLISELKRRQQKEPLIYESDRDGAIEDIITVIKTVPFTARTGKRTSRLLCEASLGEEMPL
Sequence of UniProt Q5GLZ8 (Q5GLZ8 whole entry, looked up): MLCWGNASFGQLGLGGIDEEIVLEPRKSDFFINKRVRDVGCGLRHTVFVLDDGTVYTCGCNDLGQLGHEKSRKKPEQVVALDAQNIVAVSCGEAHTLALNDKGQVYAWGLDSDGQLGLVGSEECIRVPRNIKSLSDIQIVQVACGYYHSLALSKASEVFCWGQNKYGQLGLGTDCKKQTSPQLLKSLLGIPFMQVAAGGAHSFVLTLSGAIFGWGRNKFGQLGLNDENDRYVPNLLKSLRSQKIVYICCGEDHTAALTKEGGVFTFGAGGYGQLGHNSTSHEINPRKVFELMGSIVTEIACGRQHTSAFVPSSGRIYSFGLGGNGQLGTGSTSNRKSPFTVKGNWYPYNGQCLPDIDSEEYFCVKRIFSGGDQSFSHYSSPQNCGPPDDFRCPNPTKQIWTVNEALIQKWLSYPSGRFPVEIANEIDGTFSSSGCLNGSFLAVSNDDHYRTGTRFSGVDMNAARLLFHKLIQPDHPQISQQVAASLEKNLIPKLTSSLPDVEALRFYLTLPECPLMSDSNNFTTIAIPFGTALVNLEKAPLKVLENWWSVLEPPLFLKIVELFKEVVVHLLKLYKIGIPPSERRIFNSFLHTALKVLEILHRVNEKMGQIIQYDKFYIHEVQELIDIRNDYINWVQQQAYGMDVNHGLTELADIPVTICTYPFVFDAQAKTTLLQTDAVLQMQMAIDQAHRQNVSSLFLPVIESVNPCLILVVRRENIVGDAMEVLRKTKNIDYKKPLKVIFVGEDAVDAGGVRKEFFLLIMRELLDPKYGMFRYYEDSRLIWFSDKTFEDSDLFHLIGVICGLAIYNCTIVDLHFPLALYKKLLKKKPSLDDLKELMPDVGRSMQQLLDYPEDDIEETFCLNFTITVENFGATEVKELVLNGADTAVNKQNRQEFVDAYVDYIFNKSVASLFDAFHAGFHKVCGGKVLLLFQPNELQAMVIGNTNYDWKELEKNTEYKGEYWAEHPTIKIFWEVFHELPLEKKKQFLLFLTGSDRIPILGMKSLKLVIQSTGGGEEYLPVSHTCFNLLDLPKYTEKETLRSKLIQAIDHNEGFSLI
Sequence of UniProt P35637 (P35637 whole entry, looked up): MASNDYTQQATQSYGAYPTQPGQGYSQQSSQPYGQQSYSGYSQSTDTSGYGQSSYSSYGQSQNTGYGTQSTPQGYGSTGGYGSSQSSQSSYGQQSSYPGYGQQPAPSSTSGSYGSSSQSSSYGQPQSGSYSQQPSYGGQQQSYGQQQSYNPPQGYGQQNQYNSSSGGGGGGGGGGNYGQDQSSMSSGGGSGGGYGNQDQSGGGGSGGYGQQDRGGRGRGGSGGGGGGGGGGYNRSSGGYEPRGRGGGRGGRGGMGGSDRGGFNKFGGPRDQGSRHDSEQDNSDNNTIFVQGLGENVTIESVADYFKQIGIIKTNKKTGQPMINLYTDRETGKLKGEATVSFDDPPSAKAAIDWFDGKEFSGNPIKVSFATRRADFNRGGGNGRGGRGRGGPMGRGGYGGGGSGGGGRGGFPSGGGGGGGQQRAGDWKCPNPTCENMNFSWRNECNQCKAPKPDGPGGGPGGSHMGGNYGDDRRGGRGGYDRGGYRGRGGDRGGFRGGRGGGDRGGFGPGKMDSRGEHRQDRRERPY
Sequence of UniProt Q96RP9 (Q96RP9 whole entry, looked up): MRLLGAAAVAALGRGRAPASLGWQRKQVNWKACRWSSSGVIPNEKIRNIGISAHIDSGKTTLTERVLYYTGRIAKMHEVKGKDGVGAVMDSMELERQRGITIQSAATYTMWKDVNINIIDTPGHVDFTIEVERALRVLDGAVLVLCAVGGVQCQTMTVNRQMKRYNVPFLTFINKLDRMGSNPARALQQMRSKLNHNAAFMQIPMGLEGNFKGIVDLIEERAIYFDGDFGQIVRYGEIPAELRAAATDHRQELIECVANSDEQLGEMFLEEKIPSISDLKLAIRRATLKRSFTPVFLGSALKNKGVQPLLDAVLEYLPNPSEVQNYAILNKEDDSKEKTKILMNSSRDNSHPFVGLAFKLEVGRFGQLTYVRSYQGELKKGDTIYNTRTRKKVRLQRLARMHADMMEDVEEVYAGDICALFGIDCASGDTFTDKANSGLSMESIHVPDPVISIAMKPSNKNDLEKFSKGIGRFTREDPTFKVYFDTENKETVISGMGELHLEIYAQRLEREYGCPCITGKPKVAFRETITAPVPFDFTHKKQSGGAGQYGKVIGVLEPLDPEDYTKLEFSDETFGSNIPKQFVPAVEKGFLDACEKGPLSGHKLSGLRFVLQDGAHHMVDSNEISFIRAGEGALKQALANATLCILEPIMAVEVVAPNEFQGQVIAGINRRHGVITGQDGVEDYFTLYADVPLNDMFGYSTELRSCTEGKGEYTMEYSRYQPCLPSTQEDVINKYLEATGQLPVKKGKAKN
Sequence of UniProt P04222 (P04222 whole entry, looked up): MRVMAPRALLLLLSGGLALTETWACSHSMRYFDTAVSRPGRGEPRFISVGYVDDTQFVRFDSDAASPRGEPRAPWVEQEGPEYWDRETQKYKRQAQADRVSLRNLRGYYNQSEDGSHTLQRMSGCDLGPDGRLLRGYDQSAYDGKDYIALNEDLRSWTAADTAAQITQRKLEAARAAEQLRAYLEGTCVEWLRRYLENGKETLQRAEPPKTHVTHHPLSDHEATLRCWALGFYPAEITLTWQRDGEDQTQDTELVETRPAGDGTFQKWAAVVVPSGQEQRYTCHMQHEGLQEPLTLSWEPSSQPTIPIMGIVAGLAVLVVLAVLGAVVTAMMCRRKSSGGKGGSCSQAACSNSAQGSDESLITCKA
Sequence of UniProt Q969F1 (Q969F1 whole entry): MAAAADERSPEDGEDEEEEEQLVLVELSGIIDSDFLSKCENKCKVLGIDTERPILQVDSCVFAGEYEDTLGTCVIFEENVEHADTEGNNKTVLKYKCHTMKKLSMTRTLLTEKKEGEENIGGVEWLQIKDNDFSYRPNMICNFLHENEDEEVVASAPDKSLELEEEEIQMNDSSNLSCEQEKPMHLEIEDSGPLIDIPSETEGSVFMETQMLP
Sequence of UniProt Q96EK6 (Q96EK6 whole entry, looked up): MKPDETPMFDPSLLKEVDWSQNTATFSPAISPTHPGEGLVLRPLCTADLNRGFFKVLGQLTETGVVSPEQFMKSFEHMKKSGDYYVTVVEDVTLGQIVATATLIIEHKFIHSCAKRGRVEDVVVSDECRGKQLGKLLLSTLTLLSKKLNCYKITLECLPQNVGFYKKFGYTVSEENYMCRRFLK
Sequence of UniProt P57764 (P57764 whole entry, looked up): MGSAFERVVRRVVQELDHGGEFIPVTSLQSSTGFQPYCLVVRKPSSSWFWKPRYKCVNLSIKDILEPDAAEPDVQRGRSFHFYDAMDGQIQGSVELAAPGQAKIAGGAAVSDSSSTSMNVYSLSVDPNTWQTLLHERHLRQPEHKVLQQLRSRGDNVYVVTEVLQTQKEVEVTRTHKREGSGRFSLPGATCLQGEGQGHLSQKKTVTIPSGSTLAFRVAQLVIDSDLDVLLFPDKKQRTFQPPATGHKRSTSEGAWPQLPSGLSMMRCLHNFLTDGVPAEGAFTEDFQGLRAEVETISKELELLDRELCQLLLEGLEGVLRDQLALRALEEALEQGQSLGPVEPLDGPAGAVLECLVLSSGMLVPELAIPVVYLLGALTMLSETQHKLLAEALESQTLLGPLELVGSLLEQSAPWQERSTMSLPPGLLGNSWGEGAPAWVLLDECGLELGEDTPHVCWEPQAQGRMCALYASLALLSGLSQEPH
Sequence of UniProt O76003 (O76003 whole entry, looked up): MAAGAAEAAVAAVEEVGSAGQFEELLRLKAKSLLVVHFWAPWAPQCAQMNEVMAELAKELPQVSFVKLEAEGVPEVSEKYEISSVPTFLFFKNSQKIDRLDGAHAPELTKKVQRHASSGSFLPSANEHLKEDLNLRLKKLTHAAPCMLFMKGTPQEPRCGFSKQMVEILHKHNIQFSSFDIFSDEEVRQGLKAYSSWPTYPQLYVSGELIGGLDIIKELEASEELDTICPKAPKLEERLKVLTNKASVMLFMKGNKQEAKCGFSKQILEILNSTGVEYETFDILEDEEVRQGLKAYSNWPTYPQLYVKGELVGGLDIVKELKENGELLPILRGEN

Question: For “FUS_P35637_428_CPNPTCENMNFSWR (UniProt P35637)”, which “probe-labelled cysteine peptide fold change” value (10 µM) is on record?
Answer: 0.244

Question: And the “probe-labelled cysteine peptide fold change” value (50 µM)?
Answer: 0.255

Question: For “HELQ_Q8TDG4_149_HATDFATENLCSESIK (UniProt Q8TDG4)”, which “probe-labelled cysteine peptide fold change” value (10 µM) is on record?
Answer: 0.0211

Question: And the “probe-labelled cysteine peptide fold change” value (50 µM)?
Answer: -0.0532

Question: Which “probe-labelled cysteine peptide fold change” value (10 µM) does the source give for “FMNL1_O95466_787_EQRPMEELSEEDRFMLCFSR (UniProt O95466)” here?
Answer: -0.11

Question: What about the “probe-labelled cysteine peptide fold change” value (50 µM) of the same target?
Answer: -0.0488

Question: “FN1_P02751_179_GEWTCKPIAEK (UniProt P02751)” was tested. Which “probe-labelled cysteine peptide fold change” value (10 µM) did it give?
Answer: -0.495

Question: And the “probe-labelled cysteine peptide fold change” value (50 µM)?
Answer: -0.763

Question: How did the “probe-labelled cysteine peptide fold change” value (10 µM) turn out when “FN1_P02751_401_YSFCTDHTVLVQTR (UniProt P02751)” was run?
Answer: -0.176

Question: What about the “probe-labelled cysteine peptide fold change” value (50 µM) of the same target?
Answer: -0.219

Question: “HERC4_Q5GLZ8_175_YGQLGLGTDCKK (UniProt Q5GLZ8)” was tested. Which “probe-labelled cysteine peptide fold change” value (10 µM) did it give?
Answer: -0.262

Question: What about the “probe-labelled cysteine peptide fold change” value (50 µM) of the same target?
Answer: -0.765

Question: With “FHOD1_Q9Y613_977_IMQFCHTLR (UniProt Q9Y613)” as the target, how does the “probe-labelled cysteine peptide fold change” value (10 µM) read?
Answer: 0.161

Question: What about the “probe-labelled cysteine peptide fold change” value (50 µM) of the same target?
Answer: 0.241

Question: What does the source list for “GNPNAT1_Q96EK6_157_ITLECLPQNVGFYKK (UniProt Q96EK6)”?
Answer: probe-labelled cysteine peptide fold change (10 µM): -0.202; probe-labelled cysteine peptide fold change (50 µM): -0.016

Question: What does the source list for “GTF3C6_Q969F1_178_SLELEEEEIQMNDSSNLSCEQEK (UniProt Q969F1)”?
Answer: probe-labelled cysteine peptide fold change (10 µM): -0.0206; probe-labelled cysteine peptide fold change (50 µM): 0.0042

Question: With “GLRX3_O76003_146_KLTHAAPCMLFMK (UniProt O76003)” as the target, how does the “probe-labelled cysteine peptide fold change” value (10 µM) read?
Answer: -0.359

Question: What about the “probe-labelled cysteine peptide fold change” value (50 µM) of the same target?
Answer: -1.17

Question: What does the source list for “GFM1_Q96RP9_256_QELIECVANSDEQLGEMFLEEK (UniProt Q96RP9)”?
Answer: probe-labelled cysteine peptide fold change (10 µM): -0.271; probe-labelled cysteine peptide fold change (50 µM): -0.0169

Question: What does the source list for “GSDMD_P57764_56_CVNLSIKDILEPDAAEPDVQR (UniProt P57764)”?
Answer: probe-labelled cysteine peptide fold change (10 µM): 0.0269; probe-labelled cysteine peptide fold change (50 µM): -1.36

Question: With “GLG1_Q92896_140_HTWSNNLAVLECLQDVR (UniProt Q92896)” as the target, how does the “probe-labelled cysteine peptide fold change” value (10 µM) read?
Answer: -0.0255

Question: What about the “probe-labelled cysteine peptide fold change” value (50 µM) of the same target?
Answer: 0.0447

Question: Which “probe-labelled cysteine peptide fold change” value (10 µM) does the source give for “HLA-C_P04222_364_GGSCSQAASSNSAQGSDESLIACKA (UniProt P04222)” here?
Answer: -0.585

Question: What about the “probe-labelled cysteine peptide fold change” value (50 µM) of the same target?
Answer: -1.41
